The structures appear in SMILES notation. Among all 52,000 compounds or so, about 1,700 (3.3%) were called active. No stated cut-off is given here; in the data, active means survival mostly below about 52% (no sharp cut-off); inactive means mostly above about 56%. This is one part of the list.

The assay concerns Wild type. The experiment in a line: S. aureus survival, RN4220 and DeltatarO strains – OD600, teichoic acid synthesis inhibitors, primary screen (AID 463173). As to conditions: S. aureus RN4220 wild type/DeltatarO growth, OD600, 18 h, active compounds read low, screened at 18.75 µg/mL (by protocol).
Turning to `CSc1ccc(CCNC(=O)c2cnc3c(C)cccn3c2=O)cc1`, the survival is inactive: 113%.

For `CCc1nnc(NC(=O)CSc2nccn2-c2ccc(OC)cc2)s1`, the survival was inactive: 135%.

Regarding `Cc1ccc(OC(=O)c2cccc(S(=O)(=O)N3CCOCC3)c2)c(-n2nc3ccccc3n2)c1`, the survival is inactive: 103%.

Turning to `CCn1c(C)c(C2N3CC4(C)CN2CC(C)(C3)C4=O)c2ccccc21` (stereo not drawn), the survival was inactive: 87%.

With `COC(=O)CSc1nnc(C2CCCCC2)n1Cc1ccccc1`, the survival is inactive: 112%.

`CC(C)(C)C(=O)Nc1ccc2oc(=O)ccc2c1`: the survival is inactive: 108%.

In the case of `CC(=O)c1cccc(-n2c(=O)c3c4c(sc3n(CC(=O)c3ccccc3)c2=O)CN(C(C)=O)CC4)c1`, the survival is inactive: 88%.

Turning to `Cc1nc(C)c(-c2ccc(SCC(=O)Nc3ccc(Br)cc3)nn2)s1`, the survival was inactive: 95%.

`CC(=O)c1cc2c(cc1N/C(=N/S(=O)(=O)c1ccc(Cl)cc1)c1ccc(F)cc1)OCO2`: the survival is inactive: 80%.

As for `CC1(C)Cc2ccccc2C(=NCC(=O)O)N1`, the survival was inactive: 101%.

Regarding `Cc1ccc(C)c(CN2C(=O)c3ccccc3S(=O)(=O)c3ccc(C(=O)N(C)C4CCCCC4)cc32)c1`, the survival was inactive: 94%.

In the case of `Cc1ccc(/C=C/c2onc(C)c2S(=O)(=O)N2CCC(C(=O)Nc3ccc(C)c(N(C)C)c3)CC2)cc1`, the survival was inactive: 143%.

As for `Cc1ccc(C(=O)NC2CCSC2=O)cc1` (stereo not drawn), the survival was inactive: 101%.

Regarding `Cc1ccc(CNC(=O)CCCCCn2c(=O)[nH]c3ccccc3c2=O)cc1`, the survival is inactive: 146%.

As to `Cc1nn(-c2ccccc2)c(OC(=O)C(C)C)c1Sc1ccc(Cl)cc1`, the survival was inactive: 39%.

On to `CCc1ccccc1NC(=O)Nc1c[nH]c(=O)[nH]c1=O`, for which the survival is inactive: 70%.

As for `Cc1ccc(C)c(N2CCN(C(=O)c3ccc(NC(=O)c4nsc5ccccc45)cc3)CC2)c1`, the survival was inactive: 63%.

On to `COc1cc(C(=O)Oc2c(Sc3ccccc3)c(C)nn2-c2ccccc2)cc(OC)c1OC`, for which the survival is inactive: 86%.

With `CC1CCCN(CCCNC(=O)c2ccc3c(c2)N(Cc2ccccc2F)C(=O)c2ccccc2S3(=O)=O)C1` (stereo not drawn), the survival is inactive: 169%.

In the case of `Cc1c(Cl)cccc1NC(=O)CCN1CCC(C(N)=O)CC1`, the survival was inactive: 98%.

Regarding `Cc1ccccc1-c1nc(CN2CCC(C(=O)NCc3ccccc3Cl)CC2)c(C)o1`, the survival is inactive: 85%.

Regarding `CC(C)(C)c1ccc(NC(=O)C2CCCN(c3cnccn3)C2)cc1` (stereo not drawn), the survival is inactive: 114%.

For `CCOc1ccc(N2CC(NC(=O)CCc3ccccc3)CC2=O)cc1` (stereo not drawn), the survival is inactive: 78%.

On to `O=S1(=O)C=C(N2CCCC2)c2ccccc21`, for which the survival was inactive: 96%.

Turning to `CC(=O)c1cc2c(cc1N/C(=N/S(=O)(=O)c1ccc(C)cc1)c1ccccc1)OCO2`, the survival is inactive: 88%.

As for `COC(=O)c1ccc(NC(=O)CCS(=O)(=O)c2ccc(Br)cc2)cc1`, the survival was inactive: 85%.

As for `Cc1cc(C)c(NC(=O)Cn2c(=O)n(CC(=O)NCc3ccccc3Cl)c(=O)c3sccc32)c(C)c1`, the survival is inactive: 161%.

`COC(=O)C(NC(=O)CC(C)C)(Nc1nc2c(s1)CCCC2)C(F)(F)F` (stereo not drawn): the survival is inactive: 121%.

In the case of `CCOC(=O)c1c(NC(=O)/C=C/c2ccc(OCC)cc2)sc(C)c1C`, the survival is inactive: 76%.

As for `CCOc1ccc(CNCc2c(C(=O)O)n(Cc3ccccc3F)c3cc(OC)ccc23)cc1`, the survival is inactive: 85%.

Regarding `CCc1cnc2c(c1SCC(=O)N1CCCCC1)c(=O)n(C)c(=O)n2C`, the survival is inactive: 71%.

Take `CCCCOc1ccc(C(=O)NCCS(=O)(=O)N2CCN(c3ccc(F)cc3)CC2)cc1`: the survival was inactive: 65%.

Regarding `O=C(CSc1nc2ccccc2nc1Cc1ccccc1)NCc1ccccc1Cl`, the survival was inactive: 132%.

For the molecule `COc1ccc(-c2cc(C(=O)O)n(Cc3ccccc3)n2)cc1`, the survival was inactive: 63%.

In the case of `CCC(=O)N1CCc2cc(Br)cc(S(=O)(=O)N3CCC(C(=O)Nc4ccc(OC)cc4)CC3)c21`, the survival is active: 0%.

For the molecule `CCc1ccc(NC(=O)c2ccc3c(O)c(S(=O)(=O)c4ccc(Cl)cc4)c(=O)[nH]c3c2)cc1`, the survival is inactive: 85%.

For the molecule `CCCCN(CC)CCCNC(=O)c1sc2nc(C)cc(C)c2c1-n1cccc1`, the survival is inactive: 122%.

Regarding `Cc1ccc(C)c(NC(=O)CN2C(=O)CCc3ccccc32)c1`, the survival was inactive: 88%.

For `Cc1ccc(S(=O)(=O)N(CC(O)Cn2c3ccccc3c3ccccc32)c2cccc(C(N)=O)c2)cc1` (stereo not drawn), the survival is inactive: 45%.

With `CCN(CC)c1cc(C)c2cc(NC(=O)c3cccc(OC)c3)ccc2n1`, the survival was inactive: 62%.

Regarding `Cc1nc2scc(-c3cccs3)c2c(=O)o1`, the survival is inactive: 106%.

On to `Cc1cccc2nc(-c3ccco3)c(Nc3ccc4c(c3)OCO4)n12`, for which the survival is inactive: 95%.

Turning to `CCOC(=O)C1CCCN(S(=O)(=O)c2ccc(F)c(C(=O)Nc3ccc(F)c(F)c3)c2)C1` (stereo not drawn), the survival is inactive: 73%.

In the case of `Cc1ccc(NC(=O)CN(C)S(=O)(=O)c2ccc3c(c2)n(C)c(=O)c(=O)n3C)cc1C`, the survival is inactive: 76%.

As for `Cc1ccc(-c2nc3c4ccccc4n(CC(=O)N4CCN(c5ccccc5F)CC4)c(=O)n3n2)cc1`, the survival is inactive: 71%.

As for `Cc1ccccc1CNC(=O)c1cnc2sc(N3CCOCC3)nn2c1=O`, the survival is inactive: 86%.

With `O=C(CS(=O)CC(=O)Nc1ccc2c(c1)OCCO2)Nc1ccc(Cl)cc1` (stereo not drawn), the survival was inactive: 105%.

Take `Cc1nc(SC(C)C(=O)Nc2ccccc2C)cc(-c2ccccc2)n1` (stereo not drawn): the survival was inactive: 79%.

Consider `COc1ccc(CNC(=O)c2cc(-c3ccc(OC)cc3)on2)cc1`, for which the survival was inactive: 159%.

Turning to `Cc1ccc(-n2nnnc2CNC(=O)C(C)(C)C)cc1C`, the survival was inactive: 64%.

For the molecule `Cc1ccccc1C(=O)c1cccn1CC(=O)NCc1ccccc1`, the survival is inactive: 120%.

As to `CCN(CC)Cc1nc2ccccc2[nH]1`, the survival was inactive: 110%.

Turning to `CCOc1ccc(CCNC(=O)Cn2nc(C)n3c(cc4occc43)c2=O)cc1OCC`, the survival is inactive: 87%.

In the case of `COc1ccc(OCC(=O)OC2CCN(C)CC2)cc1`, the survival was inactive: 118%.

As to `Cc1ccc(C)c(OCCn2c(-c3ccc(Cl)cc3)nc3ccccc3c2=O)c1C`, the survival is inactive: 85%.

Turning to `CCn1c2ccccc2c2nnc(SCC(=O)O)nc21`, the survival is inactive: 68%.

As to `COc1ccc(CNC(=O)CSc2nc(-c3ccc(OC)cc3)cc(C(F)(F)F)n2)cc1`, the survival was inactive: 93%.

As for `O=C(CCn1c(=O)oc2ccccc21)n1c(=O)oc2ccccc21`, the survival was inactive: 109%.
